Laboratory results from PubChem BioAssay AID488969 (Vanderbilt High Throughput Screening Facility, 2010).
In all, about 110,000 compounds were measured (“z-score”: median about -0.1, highest 2% from about 2 on). Some of the results follow. Active and inactive are the calls of the source.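 The calls were made as follows: active = z-score in the third read window above 3 or below -3; inactive = the rest.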

What follows are molecules tested against Metabotropic glutamate receptor 8 (Rattus norvegicus) (UniProt P70579) (assay: mGluR8 Gi/Go-coupled signaling modulation – cell-based, rat, thallium flux, HTS, primary screen (AID 488969)). Conditions: HEK293 rat mGluR8, GIRK (G protein-gated inwardly rectifying potassium channel) thallium flux, FluoZin2; at 10 µM; stronger effect = higher value; submaximal glutamate (EC20) added with thallium.
Chain of UniProt P70579 (P70579 whole entry, looked up): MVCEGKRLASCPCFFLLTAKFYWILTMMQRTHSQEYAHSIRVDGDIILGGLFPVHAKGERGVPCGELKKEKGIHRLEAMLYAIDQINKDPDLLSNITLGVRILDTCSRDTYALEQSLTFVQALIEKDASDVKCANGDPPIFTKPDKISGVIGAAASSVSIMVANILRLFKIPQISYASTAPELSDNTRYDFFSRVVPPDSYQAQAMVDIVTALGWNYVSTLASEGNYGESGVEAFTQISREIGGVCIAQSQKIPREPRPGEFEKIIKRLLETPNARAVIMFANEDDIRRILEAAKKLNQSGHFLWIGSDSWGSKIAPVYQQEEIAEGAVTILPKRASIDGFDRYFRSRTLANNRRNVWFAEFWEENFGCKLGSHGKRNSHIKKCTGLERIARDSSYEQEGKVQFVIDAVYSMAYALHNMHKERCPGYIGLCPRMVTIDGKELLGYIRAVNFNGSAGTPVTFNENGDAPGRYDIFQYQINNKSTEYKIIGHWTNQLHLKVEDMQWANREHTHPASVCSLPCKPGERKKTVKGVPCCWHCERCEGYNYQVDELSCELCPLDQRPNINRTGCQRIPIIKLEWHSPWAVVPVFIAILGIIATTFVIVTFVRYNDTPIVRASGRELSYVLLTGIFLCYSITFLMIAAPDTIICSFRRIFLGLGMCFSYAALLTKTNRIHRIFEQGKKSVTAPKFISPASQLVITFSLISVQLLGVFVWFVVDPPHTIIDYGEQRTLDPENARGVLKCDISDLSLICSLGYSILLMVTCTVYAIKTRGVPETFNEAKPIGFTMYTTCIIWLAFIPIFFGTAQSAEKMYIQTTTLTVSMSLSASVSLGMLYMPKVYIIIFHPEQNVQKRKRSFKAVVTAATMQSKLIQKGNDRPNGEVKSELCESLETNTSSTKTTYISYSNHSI

Row | SMILES | z-score
1 | COC(=O)COc1ccc(S(=O)(=O)Nc2cc(OC)ccc2OC)cc1 | -0.514
2 | Cc1ccc(C(=O)O/N=C(\N)c2cccc([N+](=O)[O-])c2)cc1 | -0.373
3 | COc1ccccc1/C=C/C=N/NC(=O)c1ccncc1 | -1.63
4 | Cc1ccccc1CSc1nc2c(c(=O)[nH]1)CCCC2 | -1.22
5 | COc1ccc(-c2nsc(SCC(=O)Nc3ccc4c(c3)OCO4)n2)cc1 | -0.142
6 | Cc1ccccc1C(=O)NNc1ccc([N+](=O)[O-])cc1 | 0.0562
7 | Cc1ccccc1NC(=O)/C(C#N)=C\c1cccnc1 | -0.183
8 | Cc1ccc(CNc2ccc(N3C(=O)CCCC3=O)cc2[N+](=O)[O-])cc1 | -0.0934
9 | NC(=O)C1(N2CCCCC2)CCN(Cc2nc3ccccc3c(=O)[nH]2)CC1 | -0.141
10 | O=C(NNS(=O)(=O)c1ccccc1F)c1cccc(S(=O)(=O)N2CCOCC2)c1 | active: 10.4
11 | Cc1ccc(S(=O)(=O)N2CCC(C(=O)NCCc3ccc(S(N)(=O)=O)cc3)CC2)cc1 | -0.322
12 | CCOc1cc2c3c(c1)C1(C(=O)N3C(C)(C)C=C2C)C(C#N)=C(N)Oc2cc(O)ccc21 (stereo not given) | 0.542
13 | O=C(O)CC(NC(=O)OCc1ccccc1)c1ccc(Br)cc1 (stereo not given) | -0.28
14 | Nc1cc(Cl)c(N)cc1Cl | 0.222
15 | COCCNC(=O)C(c1ccc(C)o1)N(C(=O)c1snc(C(N)=O)c1N)c1ccc(C)c(C)c1 (stereo not given) | -0.119
16 | Cc1ccnc(N2C(=O)c3ccccc3C2Nc2ccc3c(c2)OCCO3)c1 (stereo not given) | -0.506
17 | O=[N+]([O-])c1cccc(/C=N/Nc2nc(N3CCOCC3)nc(N3CCOCC3)n2)c1 | -0.0486
18 | CCN(CC)CCc1c(C)[nH]c(C(=O)OCc2ccccc2)c1C | 1.8
19 | COc1ccc(S(=O)(=O)c2ccc(OC)cc2)cc1 | -0.45
20 | O=C(O)c1cnn2cc(-c3[nH]ncc3[N+](=O)[O-])cnc12 | -0.286
21 | Cc1cc(=O)c2ccccc2[nH]1 | 0.0595
22 | COCCn1nnnc1C(c1ccccc1)N1CCN(c2ccccc2)CC1 (stereo not given) | active: -3.28
23 | N#CCOc1nc(N2CCCC2)nc(N2CCCC2)n1 | -1.89
24 | CC(=O)Nc1ccc(Oc2cc(C#N)c(C#N)cc2N2CCCCCC2)cc1 | 1.3
25 | CCN1CCN(C(c2cc(OC)ccc2OC)c2nnnn2Cc2ccccc2)CC1 (stereo not given) | -0.0909
26 | CCc1nnc(NC(=O)c2cccnc2)s1 | 0.374
27 | CC1CCN(C(=O)CSc2nc3cccnc3n2C)CC1 | 0.236
28 | COc1ccc(S(=O)(=O)N2CCOCC2)cc1NC(=O)c1cccc2c(=O)c(C)c(-c3ccccc3)oc12 | -0.842
29 | O=c1[nH]c2cc3c(cc2cc1CN(CC1CCCO1)S(=O)(=O)c1ccc(Cl)cc1)OCCO3 (stereo not given) | 0.143
30 | O=C(O)c1c[nH]c(=S)n1-c1ccc(F)cc1 | 0.204
